Assay results as given in the supplement of paper PMC4967469.
pIC50: −log10 of the molar value. By IC50 is meant the dose at which the fit gives 50% viability; a fit beyond the top or the lowest dose is shown as a bound at that dose. AUC, from the same fit, is the share of area under the viability curve across the 256-fold dose range; the more sensitive the line, the further below 1. Where the top dose is marked as inferred, it was calculated from the reported fits.

How the values were obtained:
Experiment in all cases: Viability of human cancer cell lines after 72 h of drug (GDSC screen)
BMS-509744 = compound: COc1cc(C)c(Sc2cnc(NC(=O)c3ccc(CNC(C)C(C)(C)C)cc3)s2)cc1C(=O)N1CCN(C(C)=O)CC1 [BMS-509744]; details: top dose 10.24 µM; top dose inferred
Experimental: (§1)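 Human cancer cell lines in 384-well plates, medium with 10% serum, drug for 72 h over a 256-fold dose range (nine 2-fold or five 4-fold steps up to the top dose). Adherent lines were fixed and stained with the nucleic acid dye Syto60, suspension lines read with resazurin; signal relative to control wells, capped at 0 and 100%. One two-parameter sigmoid per drug and line, fitted in a mixed model over all curves with the slope shared within a line.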

PFI-1 = compound: COc1ccccc1S(=O)(=O)Nc1ccc2c(c1)CN(C)C(=O)N2 [PFI-1]; details: top dose 10 µM; top dose inferred
Experimental: as §1

NG-25 = compound: CCN1CCN(Cc2ccc(NC(=O)c3ccc(C)c(Oc4ccnc5[nH]ccc45)c3)cc2C(F)(F)F)CC1 [NG-25]; details: top dose 10.24 µM; top dose inferred
Experimental: as §1

GSK-1904529A = compound: CCc1cc(Nc2nccc(-c3c(-c4ccc(OC)c(C(=O)Nc5c(F)cccc5F)c4)nc4ccccn34)n2)c(OC)cc1N1CCC(N2CCN(S(C)(=O)=O)CC2)CC1 [GSK-1904529A]; details: top dose 1.024 µM; top dose inferred
Experimental: as §1

Tipifarnib = compound: Cn1cncc1[C@@](N)(c1ccc(Cl)cc1)c1ccc2c(c1)c(-c1cccc(Cl)c1)cc(=O)n2C [Tipifarnib]; details: top dose 16 µM; top dose inferred
Experimental: as §1

| Cell Line | AUC (BMS-509744) | pIC50 (BMS-509744) | AUC (PFI-1) | pIC50 (PFI-1) | AUC (NG-25) | pIC50 (NG-25) | AUC (GSK-1904529A) | pIC50 (GSK-1904529A) | AUC (Tipifarnib) | pIC50 (Tipifarnib) |
| --- | --- | --- | --- | --- | --- | --- | --- | --- | --- | --- |
| HL-60 (acute myeloid leukaemia, suspension) | 0.912 | < 4.99 | 0.845 | 5.21 | 0.956 | < 4.99 | 0.99 | < 5.99 | 0.684 | 5.51 |
| TE-5 (oesophagus, adherent) | 0.943 | < 4.99 | 0.806 | 5.22 | 0.982 | < 4.99 | 0.983 | < 5.99 | 0.651 | 5.55 |
| EW-18 (Ewing sarcoma, suspension) | 0.973 | < 4.99 | 0.965 | < 5.00 | 0.776 | 5.36 | 0.985 | < 5.99 | 0.413 | 6.25 |
| Calu-6 (lung adenocarcinoma, adherent) | 0.973 | < 4.99 | 0.973 | < 5.00 | 0.916 | < 4.99 | 0.98 | < 5.99 | 0.531 | 5.91 |
| TGBC24TKB (biliary tract, adherent) | 0.882 | 5.01 | 0.861 | 5.12 | 0.927 | < 4.99 | 0.983 | < 5.99 | 0.779 | 5.21 |
| Daudi (Burkitt lymphoma, suspension) | 0.928 | < 4.99 | 0.777 | 5.46 | 0.747 | 5.53 | 0.987 | < 5.99 | 0.65 | 5.61 |
| COLO-829 (melanoma, adherent) | 0.964 | < 4.99 | 0.928 | < 5.00 | 0.881 | < 4.99 | 0.97 | < 5.99 | 0.835 | < 4.80 |
| HT (B-cell lymphoma, suspension) | 0.953 | < 4.99 | 0.873 | 5.08 | 0.834 | 5.23 | 0.986 | < 5.99 | 0.677 | 5.53 |
| RH-1 (rhabdomyosarcoma, adherent) | 0.967 | < 4.99 | 0.94 | < 5.00 | 0.752 | 5.54 | 0.982 | < 5.99 | 0.674 | 5.55 |
| OCI-AML3 (acute myeloid leukaemia, suspension) | 0.99 | < 4.99 | 0.652 | 5.81 | 0.823 | 5.31 | 0.99 | < 5.99 | 0.778 | 5.26 |
| KM-H2 (Hodgkin lymphoma, suspension) | 0.938 | < 4.99 | 0.993 | < 5.00 | 0.848 | 5.23 | 0.992 | < 5.99 | 0.827 | 5.10 |
| U-87-MG (glioma, adherent) | 0.958 | < 4.99 | 0.901 | < 5.00 | 0.882 | < 4.99 | 0.985 | < 5.99 | 0.97 | < 4.80 |
| SK-N-FI (neuroblastoma, adherent) | 0.982 | < 4.99 | 0.894 | < 5.00 | 0.94 | < 4.99 | 0.989 | < 5.99 | 0.98 | < 4.80 |
| SR (lymphoid neoplasm, suspension) | 0.885 | 5.04 | 0.817 | 5.31 | 0.828 | 5.26 | 0.963 | < 5.99 | 0.59 | 5.77 |
| PL-21 (acute myeloid leukaemia, suspension) | 0.74 | 5.45 | 0.88 | < 5.00 | 0.859 | < 4.99 | 0.982 | < 5.99 | 0.694 | 5.41 |
| SU-DHL-6 (B-cell lymphoma, suspension) | 0.915 | 5.09 | 0.902 | 5.15 | 0.496 | 6.20 | 0.995 | < 5.99 | 0.318 | 6.44 |
| TE-9 (oesophagus, adherent) | 0.918 | < 4.99 | 0.902 | < 5.00 | 0.985 | < 4.99 | 0.987 | < 5.99 | 0.777 | 5.18 |
| MN-60 (B-cell leukaemia, suspension) | 0.957 | < 4.99 | 0.77 | 5.40 | 0.836 | 5.14 | 0.986 | < 5.99 | 0.828 | 4.98 |
| COR-L279 (small cell lung carcinoma, suspension) | 0.931 | < 4.99 | 0.92 | < 5.00 | 0.881 | 5.06 | 0.974 | < 5.99 | 0.777 | 5.24 |
| DSH1 (bladder, adherent) | 0.974 | < 4.99 | 0.954 | < 5.00 | 0.979 | < 4.99 | 0.966 | < 5.99 | 0.788 | 5.17 |
| NCI-H1648 (lung adenocarcinoma, adherent) | 0.827 | 5.17 | 0.976 | < 5.00 | 0.884 | < 4.99 | 0.969 | < 5.99 | 0.619 | 5.66 |
| SW982 (soft tissue, adherent) | 0.753 | 5.45 | 0.817 | 5.24 | 0.853 | 5.08 | 0.982 | < 5.99 | 0.678 | 5.50 |
| ALL-SIL (T-cell leukaemia, suspension) | 0.771 | 5.47 | 0.878 | 5.11 | 0.051 | > 7.40 | 0.985 | < 5.99 | 0.425 | 6.19 |
| GDM-1 (acute myeloid leukaemia, suspension) | 0.833 | 5.21 | 0.849 | 5.15 | 0.103 | > 7.40 | 0.985 | < 5.99 | 0.35 | 6.41 |
